# Reference: article PMC4336329 (PLoS ONE, 2015)
# In all, about 310,000 compounds went through this assay and about 2,200 (0.71%) showed an effect of 50% or more. Effects have a minus sign here. The list shows a part of the results.
# Target: human ether-à-go-go-related gene (hERG) potassium channel (human, UniProt Q12809)
# Assay: primary screen, population patch clamp on CHO cells stably expressing hERG
# Chain of human ether-à-go-go-related gene (hERG) potassium channel (Q12809 whole entry, looked up): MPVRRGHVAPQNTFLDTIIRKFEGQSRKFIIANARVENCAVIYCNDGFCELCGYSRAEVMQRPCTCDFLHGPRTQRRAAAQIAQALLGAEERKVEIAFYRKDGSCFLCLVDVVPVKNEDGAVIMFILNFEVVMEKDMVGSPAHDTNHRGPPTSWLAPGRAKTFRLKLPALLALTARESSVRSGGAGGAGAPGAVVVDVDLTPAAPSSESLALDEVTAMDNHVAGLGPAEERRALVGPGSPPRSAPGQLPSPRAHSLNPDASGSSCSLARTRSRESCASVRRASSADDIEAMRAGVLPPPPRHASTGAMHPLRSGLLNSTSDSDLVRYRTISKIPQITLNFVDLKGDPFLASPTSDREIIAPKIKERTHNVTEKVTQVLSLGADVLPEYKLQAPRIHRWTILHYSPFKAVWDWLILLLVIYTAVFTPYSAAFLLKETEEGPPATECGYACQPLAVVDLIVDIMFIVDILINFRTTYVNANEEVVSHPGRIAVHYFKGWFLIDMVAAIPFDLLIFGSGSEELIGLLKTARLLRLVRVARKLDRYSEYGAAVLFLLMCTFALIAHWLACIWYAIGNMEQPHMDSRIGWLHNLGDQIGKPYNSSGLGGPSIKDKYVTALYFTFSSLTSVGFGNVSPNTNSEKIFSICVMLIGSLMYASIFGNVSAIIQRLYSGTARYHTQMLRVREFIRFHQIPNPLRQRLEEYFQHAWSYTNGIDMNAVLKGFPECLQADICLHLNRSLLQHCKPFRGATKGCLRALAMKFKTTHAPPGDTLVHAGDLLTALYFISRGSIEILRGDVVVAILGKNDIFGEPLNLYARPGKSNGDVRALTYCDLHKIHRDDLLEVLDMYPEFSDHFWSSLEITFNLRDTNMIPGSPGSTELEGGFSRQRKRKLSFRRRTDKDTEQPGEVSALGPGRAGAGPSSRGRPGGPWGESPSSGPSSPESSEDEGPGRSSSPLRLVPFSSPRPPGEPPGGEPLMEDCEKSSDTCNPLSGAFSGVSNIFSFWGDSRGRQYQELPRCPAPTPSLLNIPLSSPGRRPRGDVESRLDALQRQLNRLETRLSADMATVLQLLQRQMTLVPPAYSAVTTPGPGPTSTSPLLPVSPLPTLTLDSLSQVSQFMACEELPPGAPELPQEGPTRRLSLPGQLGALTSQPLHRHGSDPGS
row,SMILES,"hERG current change (%, negative = inhibition) at 1uM [%]"
1,Cc1nc2ccccc2c2nc(NC(=O)Cc3ccccc3)nn12,-1.54
2,CCOC(=O)CCCNC(=O)CSc1nnc(-c2ccccc2)c(-c2ccccc2)n1,-3.06
3,CCc1cc(C(=O)c2ccc(OC)cc2)c(NC(=O)CN2CCCCC2)s1,7.6
4,COc1cccc(/C=C2\NC(=O)NC2=O)c1O,16.9
5,COc1ccc(-c2csc(Nc3ccc(S(=O)(=O)Nc4cc(C)on4)cc3)n2)cc1,0.675
6,CC(C)c1c(O)c2c(n(-c3ccccc3)c1=O)CCCC2,10.6
7,COc1ccc(C(=O)NC2CCCN(Cc3ccccc3F)C2)c(OC)c1OC (stereo not drawn),4.49
8,Cc1c(CN(C)C(=O)CSc2nc(-c3ccco3)cc(C(F)(F)F)n2)cnn1C,12.4
9,CC/C(=N\N1CCCCCC1)c1c(O)n(-c2ccccc2C)c(=O)[nH]c1=O,14.1
10,COc1cccc(CC(=O)N2CCN(Cc3cccc(Cl)c3)CC2)c1,3.24
11,Cc1nc2ccc(Cl)cc2c(=O)n1-c1ccccc1Cl,14.6
12,Cc1cccc2cc(/C=N/Nc3ccc(C(=O)O)cc3)c(Cl)nc12,5.76
13,Cn1c(C(=O)NCc2cccs2)cc2c(=O)n(C)c3ccccc3c21,4.97
14,COC(=O)c1ccccc1NC(=O)c1cc2ncc(Br)cn2n1,7.91
15,CCCCC(=Nc1ccccc1OC)C1=C(O)CC(c2ccccc2)CC1=O (stereo not drawn),15.3
16,COc1ccc(C(=O)NCCNc2ccccc2[N+](=O)[O-])cc1,10.9
17,COc1ccccc1Nc1nc(N)nc(CSC(=S)N2CCCCC2)n1,8.95
18,Cc1ccc(Nc2nc3ccccc3[nH]2)nc1,6.46
19,COc1ccc(NS(=O)(=O)c2ccc3c(c2)NC(=O)CCS3)cc1Cl,8.04
20,CCOC(=O)N1CCC(NS(=O)(=O)c2ccc3c(c2)CCN3C(C)=O)CC1,0.963
21,CN(C)C(Cc1ccc(Cl)cc1)C(=O)c1ccccc1 (stereo not drawn),12.1
22,CC(C)Cn1c(=O)c2c(nc3n2CC(C)CN3Cc2ccccc2)n(C)c1=O (stereo not drawn),-16.7
23,COc1ccc(-c2c(-c3cc(OC)cc(OC)c3)n(C)c3ccc(-c4ccc(S(N)(=O)=O)cc4)cc23)cc1,17
24,Cn1c(O)c(N=NC(=O)c2cc(-c3cccs3)nc3ccccc23)c2ccccc21,16.6
